# Experimental data as given in the supplement of paper PMC12217912.
# The other results are listed elsewhere or left out. Sequences were assembled here from the parent chain. Inactive controls read about 0.05.
# B1: TEV protease; numbered along this chain (parent)
# chain: MGESLFKGPRDYNPISSSICHLTNESDGHTTSLYGIGFGPFIITNKHLFRRNNGTLVVQSLHGVFKVKDTTTLQQHLVDGRDMIIIRMPKDFPPFPQKLKFREPQREERICLVTTNFQTKSMSSMVSDTSCTFPSGDGIFWKHWIQTKDGQCGSPLVSTRDGFIVGIHSASNFTNTNNYFTSVPKNFMELLTNQEAQQWVSGWRLNADSVLWGGHKVFMVKPEEPFQPVKEATQL
# Variants of: B1
# Experiment: raw area under fraction-flipped curve 0-4 h after induction (AUC4h, not background-subtracted), DNA-recorder readout of cleavage of the substrate (dimensionless); higher = more cleavage of the substrate by the protease variant
# Conditions: temperature: 34 °C; time window: 0-4 h after rhamnose induction
# 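Also: Bxb1 expression induced with 0.2% (w/v) L-rhamnose at OD600 near 0.5, cultures sampled hourly, flipped fraction per protease–substrate barcode pair counted by paired-end Illumina sequencing.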
Variant,area with substrate EDLYFQS,area with substrate EFLYFQS,area with substrate EILYFQS,area with substrate EKLYFQS,area with substrate EPLYFQS,area with substrate ERLYFQS,area with substrate ESLYFQS,area with substrate EVLYFQS,area with substrate EELYFQS,area with substrate EGLYFQS
MGESLFKGPRDYNPISSSICHLTNESDGHTTSLYGIGFGPFIITNKHLFRRNNGTLVVQSLHGVFKVKDTTTLQQHLVDGRDMIIIRMKKDFPPFPQKLKFREPQREERICLVTTNFQTKSMSSMVSDTSCTFPSGDGIFWKHWIQTKDGQCGSPLVSTRDGFIVGIHSASNFTNTNNYFTSVPKNFMELLTNQEAQQWVSGWRLNADSVLWGGHKVFMVKPEEPFQPVKEATQL [P89K],0.0931,0.0889,0.0758,0.0777,0.0693,0.0772,0.0743,0.101,–,–
MGESLFKGPRDYNPISSSICHLTNESDGHTTSLYGIGFGPFIITNKHLFRRNNGTLFVQSLHGVFKVKDTTTLQQHLVDGRDMIIIRMPKDFPPFPQKLKFREPQREERICLVTTNFQTKSMSSMVSDTSCTFPSGDGIFWKHWIQTKDGQCGSPLVSTRDGFIVGIHSASNFTNTNNYFTSVPKNFMELLTNQEAQQWVSGWRLNADSVLWGGHKVFMVKPEEPFQPVKEATQL [V57F],–,–,–,0.107,0.135,0.0921,0.102,0.0613,0.124,0.0959
MGESLFKGPRDYNPISSSICHLTNESDGHTTSLYGIGFGPFIITNKHLFRRNNGTLVVQSLHGVFKVKDTTTLQQHLVDGRDMIIIRMPKDFPPFPQKLKFREPQREERICLVTTNFQTKSMSSMVSDTSCTFPSGDGIFWKHWIQTKDGQCGSPLVSTRDGFIVGIHSASNFTNTNNYFTSVPKNFFELLTNQEAQQWVSGWRLNADSVLWGGHKVFMVKPEEPFQPVKEATQL [M188F],0.143,–,0.0861,–,–,–,0.0045,0.105,–,–
MGESLFKGPRDYNPISSSICHLTNESDGHTTSLYGIGFGPFIITNKHLFRRNNGTLVVQSLHGVFKVKDTTTLQQHLVDGRDMIIIRMPKDFPPFPQKLKFREPQREERICLVTTNFQTKSMSSMVSDTSCTFPSGDGIFWKHWIQTKDGQCGSPLVSTRDGFIVGIHSDSNFTNTNNYFTSVPKNFMELLTNQEAQQWVSGWRLNADSVLWGGHKVFMVKPEEPFQPVKEATQL [A170D],0.0663,–,0.0456,–,–,0.085,–,0.0633,–,–
MGESLFKGPRDYNPISSSICHLTNESDGHTTSLYGIGFGPFIITNKHLFRRNNGTLVVQSLHGVFKVKDTTTLQQHLVDGRDMIIIRMPKDFPPFDQKLKFREPQREERICLVTTNFQTKSMSSMVSDTSCTFPSGDGIFWKHWIQTKDGQCGSPLVSTRDGFIVGIHSASNFTNTNNYFTSVPKNFMELLTNQEAQQWVSGWRLNADSVLWGGHKVFMVKPEEPFQPVKEATQL [P96D],0.122,–,0.105,0.117,–,–,0.111,0.124,0.174,0.092
MGESLFKGPRDYNPISSSICHLTNESDGHTTSLYGIGFGPFIITNKHLFRRNNGTLVVQSLHGVFKVKDTTTLQQHLVDGRDMIIIRMPKDFPPFPQKLKFREPQREERICLVTTNFQTKSMSSMVSDTSCTFPSGDGIFWKHWIQTKDGQCGSPLVSTRDGFIVGIHSASNFTNTNNYFTSVPKNFMELLTNQEAQQWVSGWRLNADSVLWGGHKVFMVKPEEPFQPVKEAIQL [T233I],0.112,–,–,–,0.0903,0.106,0.113,0.0906,–,0.0884
MGESLFKGPRDYNPISSSICHLTNESDGHTTSLYGIGFGPFIITNKHLFRRNNGTLVVQSLHGVFKVKDTTTLQQHLVDGRDMIIIRMPKDFPPFPQKLKFREPQREERICLVTTNFQTKSMSSMVSDTSCTFPSGDGIFWKHWIQTKDGQCGSPLVSTRDGFIVGIHSASNFTNTNNYFTSVPKNFMELLTNQEAQQWVSGWRLNADSVLWGGHKMFMVKPEEPFQPVKEATQL [V217M],0.112,–,0.0786,0.0753,–,0.0889,0.0531,0.0931,0.0911,–
MGESLFKGPRDYNPISSSICHLTNESDGHTTSLYGIGFGPFIITNKHLFRRNNGTLVVQSLHGVFKVKDTTTLQQHLVDGRDMIIIRMPKDFPPFPQKLKFREPQREERICLVTTNFQTKSMSSMVSDTSCTFPSGDGIFWKHWIQTKDGQCGSPLVSTRDGFIVGIHSASNFTNTNNYFTSVPKNFMELNTNQEAQQWVSGWRLNADSVLWGGHKVFMVKPEEPFQPVKEATQL [L191N],0.0572,–,–,0.0527,–,0.0551,–,0.0495,–,0.0519
MGESLFKGPRDYNPISSSICHLTNESDGHTTSLYGIGFGPFIITNKHLFRRNNGTLVVQSLHGVFKVKDTTTLQQHLVDGRDMIIIRMPKDFPPFPQKLKFREPQREERICLVTTNFQTKSMSSMVSDTSCTFPSGDGIFWKHWIQTKDGQCGSPLVSTRDGFIVGIHSASNFTNTNNYFTSVPKNFMEVLTNQEAQQWVSGWRLNADSVLWGGHKVFMVKPEEPFQPVKEATQL [L190V],0.117,–,–,0.0667,0.129,–,0.121,0.065,0.175,–
MGESLFKGPRDYNPISSSICHLTNESDGHTTSLYGIGFGPFIITNKHLFRRNNGTLVVQSLHGVFKVKDTTTLQQHLVDGRDMIIIRMPKDFPPFPQKLKFREPQREERICLVTTNFQTKSMSSMVSDTSCTFPSGDGIFWKHWIQTKDGQCGSPLVSTRDGFIVGIHSAWNFTNTNNYFTSVPKNFMELLTNQEAQQWVSGWRLNADSVLWGGHKVFMVKPEEPFQPVKEATQL [S171W],0.0659,–,0.0682,–,–,–,0.0687,–,–,–
MGESLFKGPRDYNPISSSICHLTNESDGHTTSLYGIGFGPFIITNKHLFRRNNGTLVVQSLHGVFKVKDTTTLQLHLVDGRDMIIIRMPKDFPPFPQKLKFREPQREERICLVTTNFQTKSMSSMVSDTSCTFPSGDGIFWKHWIQTKDGQCGSPLVSTRDGFIVGIHSASNFTNTNNYFTSVPKNFMELLTNQEAQQWVSGWRLNADSVLWGGHKVFMVKPEEPFQPVKEATQL [Q75L],0.155,–,–,–,–,–,–,–,0.126,–

# Same assay, conditions: temperature: 34 °C; time window: 0-4 h after rhamnose induction
Variant,area with substrate EWLYFQS,area with substrate EMLYFQS,area with substrate EYLYFQS,area with substrate EHLYFQS,area with substrate EQLYFQS,area with substrate ELLYFQS,area with substrate ETLYFQS
MGESLFKGPRDYNPISSSICHLTNESDGHTTSLYGIGFGPFIITNKHLFRRNNGTLFVQSLHGVFKVKDTTTLQQHLVDGRDMIIIRMPKDFPPFPQKLKFREPQREERICLVTTNFQTKSMSSMVSDTSCTFPSGDGIFWKHWIQTKDGQCGSPLVSTRDGFIVGIHSASNFTNTNNYFTSVPKNFMELLTNQEAQQWVSGWRLNADSVLWGGHKVFMVKPEEPFQPVKEATQL [V57F],0.0862,–,–,–,–,–,–
MGESLFKGPRDYNPISSSICHLTNESDGHTTSLYGIGFGPFIITNKHLFRRNNGTLVVQSLHGVFKVKDTTTLQQHLVDGRDMIIIRMPKDFPPFPQKLKFREPQREERICLVTTNFQTKSMSSMVSDTSCTFPSGDGIFWKHWIQTKDGQCGSPLVSTRDGFIVGIHSASNFTNTNNYFTSVPKNFFELLTNQEAQQWVSGWRLNADSVLWGGHKVFMVKPEEPFQPVKEATQL [M188F],–,0.0807,0.126,–,–,–,–
MGESLFKGPRDYNPISSSICHLTNESDGHTTSLYGIGFGPFIITNKHLFRRNNGTLVVQSLHGVFKVKDTTTLQQHLVDGRDMIIIRMPKDFPPFPQKLKFREPQREERICLVTTNFQTKSMSSMVSDTSCTFPSGDGIFWKHWIQTKDGQCGSPLVSTRDGFIVGIHSDSNFTNTNNYFTSVPKNFMELLTNQEAQQWVSGWRLNADSVLWGGHKVFMVKPEEPFQPVKEATQL [A170D],–,0.0559,–,–,–,–,–
MGESLFKGPRDYNPISSSICHLTNESDGHTTSLYGIGFGPFIITNKHLFRRNNGTLVVQSLHGVFKVKDTTTLQQHLVDGRDMIIIRMPKDFPPFDQKLKFREPQREERICLVTTNFQTKSMSSMVSDTSCTFPSGDGIFWKHWIQTKDGQCGSPLVSTRDGFIVGIHSASNFTNTNNYFTSVPKNFMELLTNQEAQQWVSGWRLNADSVLWGGHKVFMVKPEEPFQPVKEATQL [P96D],0.0972,–,0.118,0.0853,0.131,–,–
MGESLFKGPRDYNPISSSICHLTNESDGHTTSLYGIGFGPFIITNKHLFRRNNGTLVVQSLHGVFKVKDTTTLQQHLVDGRDMIIIRMPKDFPPFPQKLKFREPQREERICLVTTNFQTKSMSSMVSDTSCTFPSGDGIFWKHWIQTKDGQCGSPLVSTRDGFIVGIHSASNFTNTNNYFTSVPKNFMELLTNQEAQQWVSGWRLNADSVLWGGHKVFMVKPEEPFQPVKEAIQL [T233I],0.0912,–,–,0.112,–,–,–
MGESLFKGPRDYNPISSSICHLTNESDGHTTSLYGIGFGPFIITNKHLFRRNNGTLVVQSLHGVFKVKDTTTLQQHLVDGRDMIIIRMPKDFPPFPQKLKFREPQREERICLVTTNFQTKSMSSMVSDTSCTFPSGDGIFWKHWIQTKDGQCGSPLVSTRDGFIVGIHSASNFTNTNNYFTSVPKNFMELLTNQEAQQWVSGWRLNADSVLWGGHKMFMVKPEEPFQPVKEATQL [V217M],–,0.0714,0.065,–,0.0856,0.0767,0.0864
MGESLFKGPRDYNPISSSICHLTNESDGHTTSLYGIGFGPFIITNKHLFRRNNGTLVVQSLHGVFKVKDTTTLQQHLVDGRDMIIIRMPKDFPPFPQKLKFREPQREERICLVTTNFQTKSMSSMVSDTSCTFPSGDGIFWKHWIQTKDGQCGSPLVSTRDGFIVGIHSASNFTNTNNYFTSVPKNFMELNTNQEAQQWVSGWRLNADSVLWGGHKVFMVKPEEPFQPVKEATQL [L191N],0.0575,–,–,0.0601,–,–,–
MGESLFKGPRDYNPISSSICHLTNESDGHTTSLYGIGFGPFIITNKHLFRRNNGTLVVQSLHGVFKVKDTTTLQQHLVDGRDMIIIRMPKDFPPFPQKLKFREPQREERICLVTTNFQTKSMSSMVSDTSCTFPSGDGIFWKHWIQTKDGQCGSPLVSTRDGFIVGIHSASNFTNTNNYFTSVPKNFMEVLTNQEAQQWVSGWRLNADSVLWGGHKVFMVKPEEPFQPVKEATQL [L190V],0.095,–,0.106,0.125,0.14,–,0.127
MGESLFKGPRDYNPISSSICHLTNESDGHTTSLYGIGFGPFIITNKHLFRRNNGTLVVQSLHGVFKVKDTTTLQQHLVDGRDMIIIRMPKDFPPFPQKLKFREPQREERICLVTTNFQTKSMSSMVSDTSCTFPSGDGIFWKHWIQTKDGQCGSPLVSTRDGFIVGIHSAWNFTNTNNYFTSVPKNFMELLTNQEAQQWVSGWRLNADSVLWGGHKVFMVKPEEPFQPVKEATQL [S171W],0.0633,0.0587,–,–,0.0489,–,0.0461
